Measurements: patent US20220017591A1 (AstraZeneca / MedImmune, published 2022)
Like-named read-outs stand apart in the source and are kept apart here.

Legend:
Test in all cases: cell-based or functional assay
mouse RXFP1 [1] = target: T1, mouse RXFP1 (mouse, UniProt Q6R6I7 1-758)
T1 sequence (looked up): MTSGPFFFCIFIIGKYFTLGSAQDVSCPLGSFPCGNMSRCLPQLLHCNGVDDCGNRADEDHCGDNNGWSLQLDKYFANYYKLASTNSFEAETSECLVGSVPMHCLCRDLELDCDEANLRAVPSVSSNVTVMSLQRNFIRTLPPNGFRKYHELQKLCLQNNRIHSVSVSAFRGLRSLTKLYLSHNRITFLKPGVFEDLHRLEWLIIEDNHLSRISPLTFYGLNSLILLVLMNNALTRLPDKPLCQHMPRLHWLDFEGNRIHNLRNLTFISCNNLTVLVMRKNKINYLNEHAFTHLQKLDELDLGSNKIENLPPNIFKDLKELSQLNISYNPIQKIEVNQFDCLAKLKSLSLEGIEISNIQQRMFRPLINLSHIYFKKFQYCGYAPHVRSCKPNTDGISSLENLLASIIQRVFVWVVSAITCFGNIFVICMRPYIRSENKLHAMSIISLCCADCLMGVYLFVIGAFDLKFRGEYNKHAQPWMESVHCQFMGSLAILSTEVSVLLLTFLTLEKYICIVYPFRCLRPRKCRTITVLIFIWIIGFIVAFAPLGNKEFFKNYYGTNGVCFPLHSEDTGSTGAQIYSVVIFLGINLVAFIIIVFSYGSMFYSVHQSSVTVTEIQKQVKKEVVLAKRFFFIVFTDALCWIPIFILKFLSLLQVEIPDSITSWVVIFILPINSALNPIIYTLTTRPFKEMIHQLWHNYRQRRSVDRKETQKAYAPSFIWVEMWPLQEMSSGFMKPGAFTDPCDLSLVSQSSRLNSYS

human RXFP1 [2] = target: T2, human RXFP1 (human, UniProt Q9HBX9 1-757)
T2 sequence (looked up): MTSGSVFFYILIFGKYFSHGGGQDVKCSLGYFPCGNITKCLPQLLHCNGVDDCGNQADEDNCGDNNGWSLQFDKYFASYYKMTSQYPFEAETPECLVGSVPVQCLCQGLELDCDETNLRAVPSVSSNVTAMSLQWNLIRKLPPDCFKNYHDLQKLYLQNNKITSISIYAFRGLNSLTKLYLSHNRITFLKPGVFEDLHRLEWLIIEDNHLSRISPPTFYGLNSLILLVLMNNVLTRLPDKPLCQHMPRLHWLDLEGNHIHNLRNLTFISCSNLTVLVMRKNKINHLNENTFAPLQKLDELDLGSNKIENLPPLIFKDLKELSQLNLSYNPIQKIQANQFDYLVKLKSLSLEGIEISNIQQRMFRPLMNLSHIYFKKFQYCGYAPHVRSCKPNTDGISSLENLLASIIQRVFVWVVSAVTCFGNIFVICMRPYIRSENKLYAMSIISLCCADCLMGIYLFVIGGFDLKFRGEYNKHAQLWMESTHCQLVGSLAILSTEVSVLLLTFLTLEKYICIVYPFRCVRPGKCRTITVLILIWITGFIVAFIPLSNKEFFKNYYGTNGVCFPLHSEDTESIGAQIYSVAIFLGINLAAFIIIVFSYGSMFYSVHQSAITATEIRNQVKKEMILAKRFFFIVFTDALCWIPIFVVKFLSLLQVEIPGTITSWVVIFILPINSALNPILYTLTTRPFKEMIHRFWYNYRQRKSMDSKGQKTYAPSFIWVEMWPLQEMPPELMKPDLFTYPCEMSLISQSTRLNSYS

human RXFP2 [3] = target: T3, human RXFP2 (human, UniProt Q8WXD0 1-754)
T3 sequence (looked up): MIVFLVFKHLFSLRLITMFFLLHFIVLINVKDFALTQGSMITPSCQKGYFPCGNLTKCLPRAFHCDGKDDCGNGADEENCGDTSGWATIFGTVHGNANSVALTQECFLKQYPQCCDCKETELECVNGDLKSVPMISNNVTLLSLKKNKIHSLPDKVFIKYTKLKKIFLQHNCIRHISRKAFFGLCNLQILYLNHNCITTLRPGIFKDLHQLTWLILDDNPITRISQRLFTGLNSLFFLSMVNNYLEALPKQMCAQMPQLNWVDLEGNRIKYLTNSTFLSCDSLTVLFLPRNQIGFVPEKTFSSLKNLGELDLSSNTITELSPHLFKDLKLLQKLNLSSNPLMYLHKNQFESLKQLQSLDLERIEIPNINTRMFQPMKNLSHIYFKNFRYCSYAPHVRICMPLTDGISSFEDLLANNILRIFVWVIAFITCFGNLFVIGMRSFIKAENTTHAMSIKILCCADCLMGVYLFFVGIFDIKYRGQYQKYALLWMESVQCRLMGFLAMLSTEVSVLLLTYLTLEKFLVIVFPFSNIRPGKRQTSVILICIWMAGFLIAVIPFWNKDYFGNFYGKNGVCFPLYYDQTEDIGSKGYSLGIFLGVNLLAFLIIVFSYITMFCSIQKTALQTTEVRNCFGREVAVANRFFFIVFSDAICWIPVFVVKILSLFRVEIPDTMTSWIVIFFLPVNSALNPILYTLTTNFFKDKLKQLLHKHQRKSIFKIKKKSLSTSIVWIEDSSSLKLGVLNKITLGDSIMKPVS

mouse RXFP1 [4] = target: T1, mouse RXFP1; remark: listed apart in the source
human RXFP1 [5] = target: T2, human RXFP1; remark: listed apart in the source
human RXFP2 [6] = target: T3, human RXFP2; remark: listed apart in the source

B1: RELAX0010 (Fc fusion)
chain: [letters of human IgG1 Fc omitted]GGGGSGGGGSGGGGSQLYSALANKCCHVGCTKRSLARFCGGGGSGGGGSGGGGSSWMEEVIKLCGRELVRAQIAICGMSTWS
Mouse RXFP1 [1]
  EC50 mRXFP1 (M), cAMP assay: 7.64e-12 M
Human RXFP1 [2]
  EC50 hRXFP1 (M), cAMP assay: 8.3e-12 M
Human RXFP2 [3]
  EC50 hRXFP2 (M), cAMP assay: 2.88e-07 M
Mouse RXFP1 [4]
  EC50 mRXFP1 (M), cAMP assay: 7.64e-12 M
Human RXFP1 [5]
  EC50 hRXFP1 (M), cAMP assay: 8.3e-12 M
Human RXFP2 [6]
  EC50 hRXFP2 (M), cAMP assay: 2.88e-07 M
